According to PubChem BioAssay AID488969 (Vanderbilt High Throughput Screening Facility, 2010):
The full ranking holds about 110,000 compounds; the median of “z-score” is about -0.1, and the highest 2% start at about 2. The list shows a part of the results. Calls of active or inactive are those of the source.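 How the source made its calls: active means z-score in the third read window above 3 or below -3; inactive means the rest.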

The compounds below were run against Metabotropic glutamate receptor 8 (Rattus norvegicus) (UniProt P70579) (assay: rat mGluR8 modulators via GIRK flux, primary screen, cell-based, thallium flux, HTS (AID 488969)). Conditions: HEK293 rat mGluR8, GIRK (G protein-gated inwardly rectifying potassium channel) thallium flux, FluoZin2; at 10 µM; stronger effect = higher value; submaximal glutamate (EC20) added with thallium.
UniProt P70579, sequence (P70579 whole entry, looked up): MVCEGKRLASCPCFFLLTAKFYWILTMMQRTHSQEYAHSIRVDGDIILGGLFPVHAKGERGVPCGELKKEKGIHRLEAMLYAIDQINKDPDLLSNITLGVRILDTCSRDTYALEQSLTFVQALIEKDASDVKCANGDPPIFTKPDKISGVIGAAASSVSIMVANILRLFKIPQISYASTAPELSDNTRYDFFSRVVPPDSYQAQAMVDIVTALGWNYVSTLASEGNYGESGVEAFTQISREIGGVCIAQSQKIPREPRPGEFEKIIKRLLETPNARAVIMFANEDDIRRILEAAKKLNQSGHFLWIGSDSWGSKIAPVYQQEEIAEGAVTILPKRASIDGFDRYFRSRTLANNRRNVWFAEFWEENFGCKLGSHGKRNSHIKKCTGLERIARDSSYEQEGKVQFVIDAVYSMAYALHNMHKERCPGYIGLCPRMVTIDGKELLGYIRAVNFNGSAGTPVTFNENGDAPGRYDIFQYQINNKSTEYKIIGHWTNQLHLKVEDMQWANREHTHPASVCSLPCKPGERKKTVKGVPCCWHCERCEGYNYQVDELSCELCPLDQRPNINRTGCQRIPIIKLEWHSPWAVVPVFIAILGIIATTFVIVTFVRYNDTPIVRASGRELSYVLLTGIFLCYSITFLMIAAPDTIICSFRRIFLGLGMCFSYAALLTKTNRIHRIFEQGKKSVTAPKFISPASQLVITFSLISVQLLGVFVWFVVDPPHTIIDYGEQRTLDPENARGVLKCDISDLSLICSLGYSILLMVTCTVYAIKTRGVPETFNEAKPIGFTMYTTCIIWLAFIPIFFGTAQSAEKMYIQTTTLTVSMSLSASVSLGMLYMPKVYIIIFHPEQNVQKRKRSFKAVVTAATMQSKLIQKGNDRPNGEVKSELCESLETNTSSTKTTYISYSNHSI
`CCc1ccc(C(=O)c2oc3nc(C)cc(C)c3c2N)cc1` showed a z-score of -0.335.
`Cn1c2ccccc2c(=O)c2c(=O)n(Cc3ccco3)c(COc3ccccc3)nc21` gave a z-score of -0.461.
With `CCOC(=O)c1c(-c2ccc(C)cc2)csc1NC(=O)/C(C#N)=C/c1ccc(O)c(OC)c1` the z-score was -0.0776.
In the case of `COc1ccc(OC)c(C(=O)c2ccccc2)c1`, the z-score is reported as -1.47.
`CCOC(=O)C1CCCN(Cc2c(Cl)cccc2Cl)C1` (centres undefined) gave a z-score of -0.186.
For `CN1CCN(C2=Cc3ccccc3Sc3cc(F)c(Cl)cc32)CC1`, the z-score was -0.0621.
`COc1ccc(C(=O)Nc2ccccc2C(=O)NCCCn2ccnc2)cc1` showed a z-score of -0.0976.
`COc1cc2c(cc1NC(=O)c1ccc(C(C)(C)C)cc1)CCCC2` gave a z-score of -0.385.
For `CCOC(=O)c1cc2sc(C)cc2n1CC(=O)NCCc1ccccc1`, the z-score was -0.751.
Work on `Cc1ccc(NC(=O)N2CCc3ccccc32)cc1` yielded a z-score of 1.99.
With `CCC1(C)Cc2c(sc3nnn(CC(=O)Nc4cccc5ccccc45)c(=O)c23)CO1` (centres undefined) the z-score was -0.452.
In the case of `c1ccc2c(CNc3ccc(CNc4ncn[nH]4)cc3)cccc2c1`, the z-score is reported as -0.0802.
For `COC(=O)Nc1nc(C)c(C(=O)N(C)C)s1`, the z-score was active: 4.58.
For `O=C(CN(C1CCCCC1)C1CCCCC1)N1CCc2ccccc2C1`, the z-score was -0.377.
`Cc1sc2ncn(CC(=O)NCCCC(=O)N3CCN(c4ccccn4)CC3)c(=O)c2c1C` showed a z-score of 0.263.
With `O=C1CC(C(F)(F)C(F)(F)C(F)(F)F)=Nc2ccccc2N1` the z-score was active: 3.4.
For `COc1ccc(S(=O)(=O)Nc2nc(C(F)(F)F)cs2)cc1`, the z-score was -0.797.
For `COC(=O)Cc1c[nH]c2cccc(OCC(O)CN(Cc3ccc([N+](=O)[O-])cc3)C(C)(C)C)c12` (centres undefined), the z-score was 1.04.
With `O=c1c2ccccc2nc2n1C(CSc1ccc(F)cc1)CN2` (centres undefined) the z-score was 0.00129.
With `Cc1ccc2cccc(SCC(=O)N3CCOCC3)c2n1` the z-score was 0.307.
`COC(=O)COc1nc(C)c(Br)c(OC)n1` showed a z-score of 0.126.
With `CCn1c(CCNC(=O)c2ccc(OC)cc2)nnc1SCc1ccc(Cl)c(Cl)c1` the z-score was -0.202.
Work on `Cc1ccc(-c2noc(CCC(=O)NCCN3CCOCC3)n2)cc1` yielded a z-score of -0.472.
In the case of `CCC(=O)c1ccc(OCc2ccccc2)c(OC)c1`, the z-score is reported as 0.113.
`Cc1nc(C(=O)Nc2cc(Cl)ccc2Cl)nn1-c1cc(OC(C)C)c(Cl)cc1Cl` gave a z-score of 0.0518.
`CC(C)OC(=O)Cn1c(=O)oc2ccccc21` showed a z-score of -0.391.
With `CSc1nc2c(ccc3ccccc32)o1` the z-score was -0.263.
`NC(=O)c1ccc(N=Cc2ccc([N+](=O)[O-])s2)cc1` showed a z-score of -0.21.
Work on `Cc1cc(=O)oc(C)c1C(=O)NCc1ccccc1` yielded a z-score of -0.442.
With `Cc1ccc2[nH]c3c(c2c1)CCCC3C(N)=O` (centres undefined) the z-score was -0.181.
`CC1(C)NC(=O)N(CC(=O)OCC(=O)Nc2cccc(F)c2)C1=O` was tested, and the z-score was -0.0741.
Compound `Cc1cc(C2C(C#N)=C(N)OC3=C2C(=O)CCC3)c(C)s1` (centres undefined) has a z-score of -1.07.
Compound `COC(=O)c1ccc(C(=S)N2CCOCC2)cc1` has a z-score of -0.0562.
Work on `COc1ccc(N2CCN(C(=O)c3ccc(OCc4c(C)noc4C)c(OC)c3)CC2)cc1` yielded a z-score of -0.119.
Work on `Cc1nn(Cc2ccc(C(=O)NC3CCCCC3)o2)c(C)c1Br` yielded a z-score of -0.209.
`Cc1cc(C)nc(-n2ncc3c2CC(c2ccccc2C)CC3=O)n1` (centres undefined) gave a z-score of -0.318.
Compound `CN(C(=O)COC(=O)CCc1c[nH]c2ccccc12)C(c1ccccc1)c1ccccc1` has a z-score of -0.123.
`Cc1cc(/C=N/NC(=O)C(O)(c2ccccc2)c2ccccc2)c(C)n1-c1ccc(C(=O)O)cc1` showed a z-score of 0.0759.
Compound `CON(C)c1nc(OCCNC(=O)OCc2ccc(Cl)cc2Cl)nc(N(C)C)n1` has a z-score of -0.113.
`O=C(CSc1nc2c(c(C(F)(F)F)n1)CCc1ccccc1-2)NCc1ccccc1` gave a z-score of 0.257.
`Cc1ccc(NC(=O)c2ccc(-n3cncn3)c([N+](=O)[O-])c2)cc1` showed a z-score of -0.224.
`CCCCC(=O)Nc1cccc(-c2nnc(-c3ccccc3)o2)c1` gave a z-score of -0.705.
Work on `CN(/N=C/c1ccc(O)cc1O)c1nc(-c2ccccc2)cc(-c2ccccc2)n1` yielded a z-score of 0.141.
Work on `COc1ccc(OCC(=O)N2CCN(C(=O)COc3ccc(Br)cc3)CC2)cc1` yielded a z-score of -0.254.
`COc1cc(CN(C(=S)NCC(=O)NC2CC2)C2CCCC2)cc(OC)c1OC` was tested, and the z-score was -0.186.
Compound `O=S(=O)(c1ccc(Cl)nc1)N1CCN(Cc2ccc3c(c2)OCO3)CC1` has a z-score of 0.0696.
`CC(=O)Oc1ccc2ccccc2c1C(NC(=O)Cc1ccccc1)c1ccccc1Cl` (centres undefined) was tested, and the z-score was -0.387.
`COc1ccc(N2C(=O)C3CCCN3C2c2ccccc2OC)cc1` (centres undefined) was tested, and the z-score was 0.306.
`Cc1cccc(C(=O)N2CCN(Cc3ccc4c(c3)OCO4)CC2)c1` showed a z-score of -0.0762.
In the case of `CC(C)NC(=O)C(=O)NC1CCCCCC1`, the z-score is reported as -0.349.
Work on `S=c1[nH]cc(-c2ccccc2)n1-c1ccccc1Cl` yielded a z-score of 0.447.
For `Cc1cc(C)cc(N(CC(=O)Nc2ccccc2-c2ccccc2)S(=O)(=O)c2ccccc2)c1`, the z-score was -0.375.
Work on `CC(Oc1ccc(-c2ccccc2)c(F)c1)c1ccn(S(=O)(=O)c2ccc(F)cc2)n1` (centres undefined) yielded a z-score of -0.221.
`CCc1ccc2nc(SCC(=O)N3CCCCC3)c(C#N)cc2c1` gave a z-score of 0.28.
`Cn1cccc1Cc1nnc(SCC(N)=O)n1-c1ccc(F)cc1` was tested, and the z-score was 0.456.
Compound `N#C/C(=C/c1ccc(Oc2ccc([N+](=O)[O-])cn2)cc1)C(=O)N1CCOCC1` has a z-score of -0.092.
`CCOC(=O)c1[nH]c(C)c(C(=O)Nc2ccc(C)c(C)c2)c1C` was tested, and the z-score was -0.109.
`CCC1Sc2ccccc2N(CC(=O)NC2CCCC2)C1=O` (centres undefined) was tested, and the z-score was -0.184.
Compound `CCCS(=O)(=O)c1c(S(=O)(=O)CCC)c2c(N)cccn2c1C(=O)c1ccc(Br)cc1` has a z-score of -0.206.
For `O=C(CCCCCn1c(=S)[nH]c2cc3c(cc2c1=O)OCO3)N1CCN(C(=O)c2ccco2)CC1`, the z-score was -0.209.
With `CCN1CCN(c2cc(C)c3cc(NC(=O)c4cccnc4Cl)ccc3n2)CC1` the z-score was 0.405.
`O=C(Cc1ccccc1)NCC(=O)OCC(=O)c1cccs1` was tested, and the z-score was -0.289.
`COc1cc(OC)cc(C(=O)NCCCN2CCOCC2)c1` gave a z-score of -0.0617.
Work on `O=C(Nc1ccc2c(c1)OCO2)C1CC(c2ccccc2Cl)=NO1` (centres undefined) yielded a z-score of -0.418.
With `CCOC(=O)Nc1sc(C)c(C)c1C(=O)OCC` the z-score was 0.104.
In the case of `Cc1cccc2cc(CN(CC3CCCO3)C(=S)Nc3ccccc3)c(=O)[nH]c12` (centres undefined), the z-score is reported as -0.146.
With `Cc1ccc(NC(=O)CN(C)S(=O)(=O)c2cccs2)cc1C` the z-score was 0.632.
In the case of `CCCCOC(=O)c1ccc(N2C(=O)CC(N3CCN(C/C=C/c4ccccc4)CC3)C2=O)cc1` (centres undefined), the z-score is reported as 0.587.
Work on `COc1ccc(N2CCN(C(=O)CCNS(=O)(=O)c3ccc(Br)s3)CC2)cc1` yielded a z-score of -0.283.
